According to PubChem BioAssay AID651820 (National Center for Advancing Translational Sciences (NCATS), 2012):
The whole screen tested about 340,000 compounds, of which about 12,000 (3.5%) were called active. The shares of active, inactive and inconclusive entries below differ from those in the screen. The call rests on the fitted dose curve; in most records, active means well fitted inhibition curve with a large enough effect; inconclusive means small, poorly fitted or top-dose-only effect, or another doubt; inactive means no such curve, though single readings can be large or run the other way. Potencies of inconclusive entries are left out as doubtful fits.

Test: qHTS Assay for Inhibitors of Hepatitis C Virus (HCV)
Conditions: Huh7.5.1 HCVcc-Cre (HCVcc is cell-culture hepatitis C virus) infection, luciferase reporter, 44 h; activity change, negative = inhibition: at 41.8 µM (top of the series)
Method in brief: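 Cells (1,000/well) were plated 4 h before compound, then infected with HCVcc-Cre virus (~0.5 moi). After 44 h further culture, infection was read as luciferase luminescence following a 15 min substrate incubation at room temperature.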
On the % scale 0 is the no-effect control and ±100 the full control effect; potency means the concentration at half of the fitted maximal effect; tags describe the fitted curve by direction and shape.

Structure (SMILES) | Potency | activity change, negative = inhibition
COc1ccccc1NS(=O)(=O)c1cc(NC(=O)CN2C(=O)NC3(CCCCC3)C2=O)ccc1C | active: 12.6 µM | –
CC(=NNC(=O)COc1cccc(C)c1)c1cccnc1 | – | inactive: -12.8%
Cn1nc(CC(=O)Nc2ccc3c(c2)CCC3)c2ccccc2c1=O | inconclusive [inhibitor, single point] | –
COCCn1c(=NC(=O)CCS(=O)(=O)c2ccccc2)sc2ccccc21 | inconclusive [inhibitor, partial curve, poor fit] | –
Cn1c(-n2c(-c3ccco3)nc3ccccc3c2=O)nc2ccccc21 | inconclusive [inhibitor, partial curve] | –
CC(=O)Nc1nonc1-c1nc2ccccc2n1CCC(C)C | inconclusive [inhibitor, single point] | –
O=C(COC(=O)c1ccccc1NC(=O)c1ccco1)NC1CC1 | inconclusive [inhibitor, single point] | –
c1ccc2nc(-c3ccc(N4CCOCC4)cc3)ccc2c1 | inconclusive [inhibitor, partial curve] | –
CC(C)(C)N(Cc1ccccc1)C(=O)COC(=O)c1ccc(S(=O)(=O)N2CCOCC2)cc1 | – | inactive: -5.93%
Cc1nc2sc(C(=O)Nc3ccccc3)c(N)c2c(C)c1[N+](=O)[O-] | inconclusive [inhibitor, single point] | –
CCOC(=O)c1ccc(NC(=O)COc2ccc(S(=O)(=O)NC(C)C)cc2)cc1 | inconclusive [inhibitor, partial curve] | –
CN(c1cccc(NC(=O)CN(c2ccc(F)cc2)S(C)(=O)=O)c1)S(C)(=O)=O | – | inactive: 26.1%
O=S(=O)(c1cccc(-c2cn3cc(Cl)ccc3n2)c1)N1CCOCC1 | inconclusive [inhibitor, single point] | –
CCOc1cc2c(cc1OCC)-n1cccc1C(c1cc(OC)ccc1F)NC2 (centres undefined) | inconclusive [inhibitor, partial curve] | –
COc1ccccc1Nc1nc(N)nc(CSC(=S)N2CCN(c3ccccc3)CC2)n1 | inconclusive [inhibitor, single point] | –
COc1ccc(C2(O)CC3CCC(C2)N3c2cc(C)nc(-c3ccccc3)n2)cc1 (centres undefined) | inconclusive [inhibitor, single point] | –
COc1ccccc1C(=O)N/C(=C\c1cn(S(=O)(=O)N(C)C)c2ccccc12)C(=O)N1CCCCC1 | – | inactive: 1.65%
COCC(=O)Nc1cc(=O)n(C)c(=O)n1C | – | inactive: 5.79%
CC1=NN=C(c2ccccc2)C(c2c[nH]c3ccccc23)N1O (centres undefined) | – | inactive: -1.89%
O=C(CSc1n[nH]c(-c2ccccn2)n1)Nc1cccc(Cl)c1 | active: 10 µM | –
CC(Oc1ccc(Cl)cc1)c1ccnn1S(=O)(=O)c1ccccc1 (centres undefined) | inconclusive [inhibitor, single point] | –
CC1=C[C@H]2Cc3cc(C)cc(C)c3S(=O)(=O)[C@@H]2C=C1 | inconclusive [inhibitor, partial curve] | –

Structure (SMILES) | Potency | activity change, negative = inhibition
O=C(Nc1cc2c3c(c1)CC(=O)N3CCC2)c1c(F)cccc1F | inconclusive [inhibitor, partial curve, poor fit] | –
CC1CCN(CCOCCOc2ccc(Br)cc2Cl)CC1 | inconclusive [inhibitor, single point] | –
COc1ccc(CN(C(=O)Cc2c[nH]c3ccccc23)C(C(=O)NC2CCCCC2)c2ccc(C)o2)cc1 (centres undefined) | inconclusive [inhibitor, partial curve] | –
CCC(=O)Nc1sc(C(=O)Nc2ccccc2)c(C)c1C(=O)OC | inconclusive [inhibitor, partial curve] | –
O=C(O)c1ccc(NC(=O)c2ccccc2NC(=O)c2cccc(Br)c2)cc1 | – | inactive: -17.9%
COc1ccc(/C=N\NC(=O)c2sccc2C)cc1Cn1nc(C)cc1C | inconclusive [inhibitor, partial curve] | –
COc1ccc(-c2nc(SCC(=O)Nc3nccs3)c(-c3ccc(Cl)cc3)[nH]2)cc1 | inconclusive [inhibitor, single point] | –
CCN(CC)C(=O)[C@H]1C[C@H](CC(=O)NCc2ccc(OC)c(OC)c2)C(=O)N2CCc3c([nH]c4ccc(Cl)cc34)[C@]12C | inconclusive [inhibitor, single point] | –
COc1ccc(NC(=O)CN2C(=O)c3ccccc3S2(=O)=O)cc1S(=O)(=O)N1CCOCC1 | – | inactive: 12.5%
COc1ccc(N=C2NN=C(c3ccc4c(c3)OCCO4)CS2)cc1 | inconclusive [inhibitor, single point] | –
CCOc1ccc(-c2nc(CCl)cs2)cc1 | – | inactive: 10.9%
Cc1ccc(NC(=O)c2cccs2)cc1[N+](=O)[O-] | active: 7.94 µM | –
CCOC(=O)C1=C(c2ccccc2)NC(=O)NC1c1ccc(O)c(Cl)c1 (centres undefined) | – | inactive: 0.391%
O=C(Cc1cccs1)N(Cc1cccs1)C1(C(=O)NC2CCCC2)CCCCC1 | inconclusive [inhibitor, single point] | –
COc1cc(CC(=O)Nc2cccc(C(F)(F)F)c2)cc(OC)c1OC | inconclusive [inhibitor, single point] | –
Cn1ccsc1=NC(=O)c1ccc(=O)[nH]c1 | – | inactive: 7.84%
COc1ccc(Br)cc1CSC(=N)N | inconclusive [inhibitor, single point] | –
O=C(Nc1ccc(F)cc1F)c1cc(Cl)sc1Cl | – | inactive: 2.29%
CCOC(=O)c1c(C(C)(C)C)oc2ccc(O)cc12 | inconclusive [inhibitor, partial curve] | –
Cc1noc(-c2ccc(C(F)(F)F)cc2)c1NC(=O)Nc1ccc(Cl)cc1 | inconclusive [inhibitor, full curve] | –
CCCCCCCCNC(=O)c1cccnc1SCC(=O)Nc1ccccc1OC | inconclusive [inhibitor, single point] | –
C=C(C)c1cccc(C(C)(C)NC(=O)Nc2ccc(OC)nc2)c1 | inconclusive [inhibitor, partial curve] | –
